Experimental data: the supplement of paper PMC7826260
This is one part of the list. Each Rep nickase domain was tested in vitro on the same pool of single strands (1 h at 37 °C, 3 µM enzyme); the outer parts of the 90-letter strands are left off. Numbers give uncut DNA relative to the enzyme-free pool, as log2; strong cutting gives strongly negative numbers. There is no active / inactive call. Because reads are shares of a total, they shift together; uncut strands gain when others are lost, and binding without cutting may add a little.

Assays:
Test in all cases: uncleaved DNA left, log2 of reads against the no-enzyme library (log2 ratio); higher = less cleavage (more negative = more Rep cleavage of the k-mer); sequences stand for … in CTCGTCCG…ACCGGAGA
[1] = system: T1, Rep nickase domain of Muscovy duck circovirus
T1 sequence (residues 1-111, tag not shown): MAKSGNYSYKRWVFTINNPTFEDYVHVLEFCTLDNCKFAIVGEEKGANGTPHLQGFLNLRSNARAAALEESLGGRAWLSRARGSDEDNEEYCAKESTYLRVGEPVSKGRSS
Protocol: (§1)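 A pool of 90-nt single-stranded DNAs with seven random bases just before the constant AC of the nick site (name = the seven bases) was cut by 3 µM recombinant His6-SUMO-tagged Rep nickase domain (300 nM DNA, 50 mM HEPES pH 8.0, 50 mM NaCl, 1 mM MnCl2, 1 h, 37 °C, three replicates). Uncut DNA was amplified and sequenced.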

[2] = system: T2, Rep nickase domain of banana bunchy top virus
T2 sequence (residues 1-94, tag not shown): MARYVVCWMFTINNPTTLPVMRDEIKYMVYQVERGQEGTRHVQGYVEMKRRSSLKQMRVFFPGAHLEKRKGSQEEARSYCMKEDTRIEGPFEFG
Protocol: as §1

[3] = system: T3, Rep nickase domain of cabbage leaf curl virus
T3 sequence (residues 1-116, tag not shown): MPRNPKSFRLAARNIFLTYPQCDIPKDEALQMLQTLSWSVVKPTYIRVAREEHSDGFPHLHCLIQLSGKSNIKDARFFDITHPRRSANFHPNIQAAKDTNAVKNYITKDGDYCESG
Protocol: as §1

[4] = system: T4, Rep nickase domain of chickpea chlorotic dwarf virus
T4 sequence (residues 1-124, tag not shown): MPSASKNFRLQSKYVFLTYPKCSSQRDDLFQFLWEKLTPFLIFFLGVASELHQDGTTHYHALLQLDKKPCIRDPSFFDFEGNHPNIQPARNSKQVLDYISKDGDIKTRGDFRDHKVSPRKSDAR
Protocol: as §1

[5] = system: T5, Rep nickase domain of faba bean necrotic yellows virus
T5 sequence (residues 1-98, tag not shown): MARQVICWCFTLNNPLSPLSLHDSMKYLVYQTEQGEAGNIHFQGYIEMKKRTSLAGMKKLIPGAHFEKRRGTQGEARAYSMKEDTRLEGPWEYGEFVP
Protocol: as §1

[6] = system: T6, Rep nickase domain of maize striate mosaic virus
T6 sequence (residues 1-117, tag not shown): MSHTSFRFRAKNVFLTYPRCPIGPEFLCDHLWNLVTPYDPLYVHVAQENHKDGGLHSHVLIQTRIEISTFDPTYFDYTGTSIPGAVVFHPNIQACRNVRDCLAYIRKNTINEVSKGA
Protocol: as §1

[7] = system: T7, Rep nickase domain of porcine circovirus 2
T7 sequence (residues 2-116, tag not shown): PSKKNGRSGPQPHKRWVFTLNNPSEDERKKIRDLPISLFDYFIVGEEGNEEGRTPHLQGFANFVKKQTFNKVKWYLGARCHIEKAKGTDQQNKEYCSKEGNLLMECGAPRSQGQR
Protocol: as §1

[8] = system: T8, Rep nickase domain of tomato golden mosaic virus
T8 sequence (residues 1-124, tag not shown): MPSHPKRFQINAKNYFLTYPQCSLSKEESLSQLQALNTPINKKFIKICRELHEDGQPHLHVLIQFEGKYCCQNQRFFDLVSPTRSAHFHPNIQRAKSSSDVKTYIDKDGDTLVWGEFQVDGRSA
Protocol: as §1

[9] = system: T9, Rep nickase domain of tomato yellow leaf curl virus
T9 sequence (residues 1-136, tag not shown): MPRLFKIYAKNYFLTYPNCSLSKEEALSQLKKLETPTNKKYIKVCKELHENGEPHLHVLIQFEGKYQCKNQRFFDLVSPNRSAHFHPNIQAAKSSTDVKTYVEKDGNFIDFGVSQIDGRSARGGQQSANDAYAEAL
Protocol: as §1

[10] = system: T10, Rep nickase domain of wheat dwarf virus
T10 sequence (residues 1-137, tag not shown): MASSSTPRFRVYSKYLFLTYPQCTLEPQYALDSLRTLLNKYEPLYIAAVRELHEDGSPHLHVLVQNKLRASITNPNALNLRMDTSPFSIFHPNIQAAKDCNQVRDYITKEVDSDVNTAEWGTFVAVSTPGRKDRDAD
Protocol: as §1

Sequence	uncleaved DNA left (log2) [1]	uncleaved DNA left (log2) [2]	uncleaved DNA left (log2) [3]	uncleaved DNA left (log2) [4]	uncleaved DNA left (log2) [5]	uncleaved DNA left (log2) [6]	uncleaved DNA left (log2) [7]	uncleaved DNA left (log2) [8]	uncleaved DNA left (log2) [9]	uncleaved DNA left (log2) [10]
TGGGCTG	0.0864	0.04	0.378	1.24	0.0258	1.78	0.11	0.209	-0.012	0.102
CAGTCAG	0.0469	0.0346	-0.793	-0.41	-0.0301	-1.07	-0.197	-0.0394	0.0928	-0.152
CTCTTTT	-2.78	-0.3	-0.352	-2.28	0.0819	-0.646	-3.22	-0.047	0.0575	-0.219
TGTTGCT	-0.538	-0.0223	-0.547	-0.987	0.0408	-0.89	-0.589	0.0654	0.0788	-0.146
TATAGCG	-0.0782	0.0127	-0.63	0.712	0.0967	-0.471	0.145	-0.0539	0.0128	-0.126
TTAGACA	-0.0242	0.0416	0.459	-0.705	0.141	0.687	0.127	0.0532	0.122	0.138
CTCGTGG	0.0473	0.12	0.303	1.01	-0.00682	0.826	0.0917	0.06	-0.0261	0.083
GTGCCGC	-0.0103	0.0642	0.228	0.574	-0.00899	0.914	0.147	0.0721	0.0362	0.103
GTTGTTA	-0.251	-0.204	0.197	0.684	-0.179	1.53	-0.143	-0.135	-0.1	-0.0572
CTTCGCT	-0.00853	-0.0347	-0.309	-1.43	-0.0859	-0.976	0.00696	-0.0632	-0.0734	-0.115
TCGTAGA	0.0579	0.00944	0.186	0.181	0.102	-0.249	0.0836	-0.0016	0.00758	0.0575
TATTTTA	-3.25	-1.4	0.033	-2.22	-0.0562	-0.228	-2.73	0.00662	0.0103	-0.0192
AGTAGGG	0.201	0.112	-0.177	-0.0239	0.207	-0.608	0.257	0.152	0.121	0.0295
ACGCTCC	-0.07	-0.0902	-0.0389	0.202	-0.0586	0.581	-0.02	-0.0761	-0.168	-0.15
CTTTCCG	-0.0244	0.0616	-0.857	0.0468	0.0725	-0.907	0.233	-0.0239	0.12	0.0271
GTCCTCT	0.0773	0.0705	0.354	0.597	-0.00239	1.63	0.129	0.0299	0.102	0.102
GAGATGA	0.234	0.159	0.622	1.43	0.208	1.62	0.249	0.0922	0.0499	0.137
TACCGTC	-0.0857	-0.0301	-0.18	-1.07	-0.0356	-0.881	-0.356	-0.088	-0.106	-0.0431
AATTGGT	-3.12	-1.36	-0.0537	0.231	-0.0212	0.345	-3.46	0.014	-0.094	0.086
AGTCGGC	-0.0291	0.161	0.0614	0.26	0.138	0.108	0.181	0.199	0.109	0.167
GCTCCCG	-0.196	-0.0247	-0.846	-0.551	-0.208	-0.962	-0.15	-2.44e-05	-0.00567	-0.0455
GTCTGCT	-0.156	0.102	0.102	0.246	0.0534	-0.0134	-0.939	0.0629	0.0218	-0.0321
ATGTTTC	-0.0911	-0.0891	-0.0304	-0.199	-0.0566	-0.533	-0.126	-0.0977	-0.154	-0.158
GGCAGAA	0.104	0.0449	0.7	1.49	0.162	1.82	0.245	0.0905	0.117	0.169
TGTAGTT	0.0271	0.0586	0.167	-1.16	0.135	0.226	-0.585	0.0389	0.0415	0.0189
CTCATAT	-0.0345	-0.123	-0.0768	-0.977	-0.0908	-0.531	-0.158	-0.162	-0.025	-0.0455
AGTCACA	0.0473	0.0153	0.067	-0.527	-0.0515	0.196	-0.788	0.00573	0.0344	-0.0275
TCCGGAA	0.11	0.0848	0.352	0.656	-0.0112	1	0.224	0.14	0.004	-0.0284
TGTCGTA	-0.0453	-0.0735	-0.0444	-0.783	0.00498	-0.599	-0.092	-0.0384	0.024	-0.0744
CTCTGAT	-0.13	0.0717	0.118	0.101	0.0822	0.556	-1.52	-0.0524	-0.131	-0.149
